The source of these data is paper PMC4336329 (PLoS ONE, 2015).

Out of some 310,000 compounds screened, about 14,000 (4.5%) showed an effect of 50% or more. The effect is printed as a negative number. Some of the results follow.
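Also: peak tail current of the secondary pulse compared with the same well before compound.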

Chain of human ether-à-go-go-related gene (hERG) potassium channel (Q12809 whole entry, looked up): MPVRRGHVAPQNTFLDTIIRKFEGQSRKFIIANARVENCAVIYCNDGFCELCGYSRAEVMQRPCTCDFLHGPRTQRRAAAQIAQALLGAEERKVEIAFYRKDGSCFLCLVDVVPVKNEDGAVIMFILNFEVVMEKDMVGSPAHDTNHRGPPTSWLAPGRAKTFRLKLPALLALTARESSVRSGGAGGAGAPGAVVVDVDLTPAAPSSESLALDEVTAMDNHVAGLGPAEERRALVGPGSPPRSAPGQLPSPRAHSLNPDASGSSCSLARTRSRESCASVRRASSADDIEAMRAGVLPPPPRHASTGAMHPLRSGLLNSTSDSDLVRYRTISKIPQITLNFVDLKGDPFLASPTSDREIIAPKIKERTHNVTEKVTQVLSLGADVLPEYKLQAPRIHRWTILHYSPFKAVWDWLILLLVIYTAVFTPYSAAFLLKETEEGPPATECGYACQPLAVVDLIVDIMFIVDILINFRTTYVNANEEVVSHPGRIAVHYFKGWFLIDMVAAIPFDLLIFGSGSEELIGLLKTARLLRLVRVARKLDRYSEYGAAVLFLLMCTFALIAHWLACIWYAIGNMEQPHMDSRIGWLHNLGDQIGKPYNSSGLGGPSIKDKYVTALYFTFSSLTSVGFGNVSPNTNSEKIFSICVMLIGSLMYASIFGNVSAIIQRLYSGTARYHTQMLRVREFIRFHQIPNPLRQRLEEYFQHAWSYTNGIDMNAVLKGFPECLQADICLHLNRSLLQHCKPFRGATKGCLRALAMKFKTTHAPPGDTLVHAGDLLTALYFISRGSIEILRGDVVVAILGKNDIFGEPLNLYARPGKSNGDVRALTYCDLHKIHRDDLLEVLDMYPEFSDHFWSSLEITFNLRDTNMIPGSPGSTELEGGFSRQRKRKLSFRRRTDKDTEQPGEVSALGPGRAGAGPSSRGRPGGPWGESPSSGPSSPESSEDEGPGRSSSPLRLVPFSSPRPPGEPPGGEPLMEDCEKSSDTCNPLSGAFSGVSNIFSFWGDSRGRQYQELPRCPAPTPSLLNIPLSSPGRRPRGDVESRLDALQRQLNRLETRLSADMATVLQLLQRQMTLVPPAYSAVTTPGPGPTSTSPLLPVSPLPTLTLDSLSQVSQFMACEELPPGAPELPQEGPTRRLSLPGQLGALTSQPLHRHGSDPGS

This assay has as its target human ether-à-go-go-related gene (hERG) potassium channel (human, UniProt Q12809). Nature of the assay: primary screen, population patch clamp on CHO cells stably expressing hERG.
As for `O=C(Nc1ccccc1N1CCOCC1)c1ccc([N+](=O)[O-])cc1`, the “hERG current change (%, negative = inhibition) at 10uM” value is -8.59%.
As for `Cc1ccc(S(=O)(=O)N=Nc2c(O)[nH]c3ccccc23)cc1`, the “hERG current change (%, negative = inhibition) at 10uM” value was 13.1%.
For `O=C(ON=C1CCN(c2ccc([N+](=O)[O-])cc2)CC1)c1ccccc1`, the “hERG current change (%, negative = inhibition) at 10uM” value is -47.5%.
In the case of `O=C(Nc1cccc2ccccc12)N1CCN(Cc2ccc3c(c2)OCO3)CC1`, the “hERG current change (%, negative = inhibition) at 10uM” value was -26.4%.
Take `c1ccc(CCNC2=NCCCS2)cc1`: the “hERG current change (%, negative = inhibition) at 10uM” value is -3.85%.
Consider `O=S(=O)(Nc1ccccc1Cl)c1ccc(F)cc1`, for which the “hERG current change (%, negative = inhibition) at 10uM” value was -1.63%.
Regarding `CCCNC(=O)c1nc(C)n(-c2cc(Cl)cc(Cl)c2)n1`, the “hERG current change (%, negative = inhibition) at 10uM” value is -13.3%.
For the compound `COC(=O)CCC(=O)Nc1cccc(C(=O)Nc2cccc(Cl)c2)c1`, the “hERG current change (%, negative = inhibition) at 10uM” value was -22.4%.
Regarding `CCONC(=NC)c1nonc1N`, the “hERG current change (%, negative = inhibition) at 10uM” value is on record as 20.7%.
Take `COC(C(=O)NC1CC1)c1ccccc1` (stereo not drawn): the “hERG current change (%, negative = inhibition) at 10uM” value came out at 17%.
The value for `COc1ccc(C(=O)NCCCN2CCOCC2)cc1Br` was 3.34%; that for `CC(C)Nc1ncnc2c1cnn2-c1ccccc1` was -8.11%.
Consider `Cc1ccc(/C=C2\SC(=O)N(CCNC(=O)C3CSC4(C)CCC(=O)N34)C2=O)cc1` (stereo not drawn), for which the “hERG current change (%, negative = inhibition) at 10uM” value is recorded as -45.6%.
For `CCn1c(SCc2cc(=O)n3ccsc3n2)nc2ccccc21`, the “hERG current change (%, negative = inhibition) at 10uM” value is recorded as -36.3%.
Regarding `Cc1cccc(N2CC(C(=O)Nc3ccc(S(=O)(=O)N4CCCCC4)cc3)CC2=O)c1C` (stereo not drawn), the “hERG current change (%, negative = inhibition) at 10uM” value worked out at 13.1%.
On to `O=C(C1CC1)N1CCN=C1SCc1ccccc1Cl`, for which the “hERG current change (%, negative = inhibition) at 10uM” value was -11.2%.
For the compound `O=C(O)CSCC(=O)Nc1cccc2ccccc12`, the “hERG current change (%, negative = inhibition) at 10uM” value was 1.12%.
On to `Cc1cc(=O)oc2cc(OCC(=O)N(C)C3CCS(=O)(=O)C3)c(Cl)cc12` (stereo not drawn), for which the “hERG current change (%, negative = inhibition) at 10uM” value was 12.5%.
Next, `NC(=O)CC(NC(=O)c1ccccc1)c1ccc(NCc2ccccn2)c([N+](=O)[O-])c1` (stereo not drawn): 5.65%; `CCc1ccc(N(CC(=O)NC2CC2)S(=O)(=O)c2ccc(C)cc2)cc1`: 7.25%; `O=C(COc1cccnc1[N+](=O)[O-])Nc1ccc(Cl)c(S(=O)(=O)N2CCOCC2)c1`: -44.5%.
Take `COc1ccc(CC(=O)N2CCN(C)CC2)cc1OC.Cl`: the “hERG current change (%, negative = inhibition) at 10uM” value stood at 17.7%.
`Cc1cc(C)n(-c2nc(NCCCO)c3c4c(sc3n2)CCCC4)n1`: the “hERG current change (%, negative = inhibition) at 10uM” value is listed as -17.9%.
With `O=C(N/N=C/c1cccc(F)c1)c1ccc(Cl)cc1`, the “hERG current change (%, negative = inhibition) at 10uM” value worked out at 16.4%.
On to `Cc1ccccc1OCCCC(=O)Nc1nncs1`, for which the “hERG current change (%, negative = inhibition) at 10uM” value is on record as -22.9%.
As to `Cc1ccccc1OCC(O)Cn1c(NCc2ccco2)nc2c1c(=O)[nH]c(=O)n2C` (stereo not drawn), the “hERG current change (%, negative = inhibition) at 10uM” value was 4.8%.
Next, `Cc1c(C)n(O)c2ccc3nonc3c12`: 7.55%; `COc1cccc(/C=N/NC(=O)CO/N=C(\C)c2cccs2)c1OC`: 4.14%.
`C#CCn1c(=NC(=O)c2sc3ccccc3c2Cl)sc2cc(S(N)(=O)=O)ccc21`: the “hERG current change (%, negative = inhibition) at 10uM” value was 5.13%.
Take `CCOC(=O)C1=C(C)N(C)C(=S)NC1c1c(OCC)ccc2ccccc12` (stereo not drawn): the “hERG current change (%, negative = inhibition) at 10uM” value stood at 6.65%.
On to `Cl.O=C(CN1CCC(C(=O)c2cccc(F)c2)CC1)NCc1cccs1`, for which the “hERG current change (%, negative = inhibition) at 10uM” value was -36.1%.
The value for `CCCCN1C(=O)C(=O)N(CC(=O)N2N=C3/C(=C/c4ccco4)CCCC3C2c2ccco2)C1=O` (stereo not drawn) was -75%; that for `Cc1c(NC(=S)NC(C)(C)C)c(=O)n(-c2ccccc2)n1C` was 14.1%.
As for `CCN(CC)S(=O)(=O)c1ccc(N2CCCC2)c(NS(=O)(=O)c2cccs2)c1`, the “hERG current change (%, negative = inhibition) at 10uM” value is listed as -10.9%.
In the case of `CCOC(=O)C1CCCN(Cc2ccc(-c3ccccc3)cc2)C1` (stereo not drawn), the “hERG current change (%, negative = inhibition) at 10uM” value is on record as -10.5%.
The value for `CCOCCCNC(=O)c1cn(C)c2ccc(S(=O)(=O)N3CCCCC3)cc2c1=O` was 1.79%; that for `Cc1cccc(NS(=O)(=O)c2cc(C(=O)N3CCc4ccccc4C3)ccc2Cl)c1C` was -8.82%; that for `COc1ccc(-c2noc(N3CCC(C(=O)NCCCN4CC(C)CC(C)C4)CC3)n2)cc1` (stereo not drawn) was -18.1%.
For the compound `CCOc1cc(CNCc2ccc3c(c2)OCO3)ccc1OC.Cl`, the “hERG current change (%, negative = inhibition) at 10uM” value is listed as -24.2%.
Next, `CS(=O)(=O)N(CCc1ccccc1)CC(=O)NCc1ccccn1`: 5.18%; `O=C(CSc1nc(O)cc(=O)n1C1CCCC1)Nc1cccc(Cl)c1Cl`: 1.51%.
Turning to `Cc1cccn2c(=O)c3cc(C(=O)N4COCC4(C)C)n(Cc4ccccc4)c3nc12`, the “hERG current change (%, negative = inhibition) at 10uM” value was 1.23%.
The value for `CC(=O)c1cccc(NC(=S)NC(=O)Cc2ccccc2)c1` was -2.33%.
Next, `O=C(c1ccc(S(=O)(=O)N2CCOCC2)cc1)N(Cc1ccco1)Cc1cccs1`: -44.5%; `CCOC(=O)c1[nH]c(C)c(C(=O)N2CCN(C(=O)c3ccco3)CC2)c1C`: 8.88%.
For `O=C(NCCc1ccccc1)c1cnc2ccccn2c1=O`, the “hERG current change (%, negative = inhibition) at 10uM” value was -12%.
With `Cc1c(C(=O)C(=O)NCC2CCCO2)c2ccccc2n1C` (stereo not drawn), the “hERG current change (%, negative = inhibition) at 10uM” value is 16.6%.
Take `COc1ccc(S(=O)(=O)NCc2ccc3c(c2)OCO3)cc1OC`: the “hERG current change (%, negative = inhibition) at 10uM” value is 7.39%.
For the compound `COc1ccc(F)c(CN2CCC(N3CCC(C(=O)N4CCOCC4)CC3)CC2)c1`, the “hERG current change (%, negative = inhibition) at 10uM” value is given as -13%.
In the case of `CCOC(=O)C1CCN(C(=O)c2ccc3c(c2)NC(=O)/C(=C\c2cccc(C)c2)S3)CC1`, the “hERG current change (%, negative = inhibition) at 10uM” value is reported as -2.12%.
On to `O=C(Nc1cc(S(=O)(=O)N2CCOCC2)ccc1N1CCOCC1)C1CCCO1` (stereo not drawn), for which the “hERG current change (%, negative = inhibition) at 10uM” value was -3.99%.
As for `Cc1cc2c(cc1S(=O)(=O)NCc1ccccc1)OCC(=O)N2`, the “hERG current change (%, negative = inhibition) at 10uM” value is given as -22.8%.
On to `COc1ccccc1NC(=O)CCC(=O)O`, for which the “hERG current change (%, negative = inhibition) at 10uM” value is 23.4%.
The value for `Cc1nn(CC(=O)c2ccccc2Cl)c(C)c1[N+](=O)[O-]` was -10.8%.
Regarding `Cc1ccc(Cn2c(N)c(S(=O)(=O)c3cccs3)c3nc4ccccc4nc32)cc1`, the “hERG current change (%, negative = inhibition) at 10uM” value is 6.56%.
For `COC(=O)C1C2C=CC3(CN(c4cccc(C)c4)C(=O)C13)O2` (stereo not drawn), the “hERG current change (%, negative = inhibition) at 10uM” value turned out to be 21.7%.
For the compound `Cc1ccc(-c2nnc(Sc3nc4ccccc4o3)c3ccccc23)cc1`, the “hERG current change (%, negative = inhibition) at 10uM” value was 6.38%.
